Data on 52 compounds can be found in article PMC6919601, “Identification of Plasmodium dipeptidyl aminopeptidase allosteric inhibitors by high throughput screening” (PLoS ONE, 2019).

The whole screen tested about 110,000 compounds, of which about 230 (0.21%) showed an effect of 50% or more. This is one part of the list.
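Note: 30 min substrate incubation versus DMSO and 10 µM JCP410 controls.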

The target in the assay is DPAP1 (Plasmodium falciparum, UniProt Q8IIJ9). As to the kind of experiment: primary screen, percent inhibition; read by cleavage of a fluorogenic dipeptide substrate; higher = more effect of the substance. On the set-up: species or system P. falciparum D10 trophozoite lysates; single well.
Chain of DPAP1 (Q8IIJ9 whole entry, looked up): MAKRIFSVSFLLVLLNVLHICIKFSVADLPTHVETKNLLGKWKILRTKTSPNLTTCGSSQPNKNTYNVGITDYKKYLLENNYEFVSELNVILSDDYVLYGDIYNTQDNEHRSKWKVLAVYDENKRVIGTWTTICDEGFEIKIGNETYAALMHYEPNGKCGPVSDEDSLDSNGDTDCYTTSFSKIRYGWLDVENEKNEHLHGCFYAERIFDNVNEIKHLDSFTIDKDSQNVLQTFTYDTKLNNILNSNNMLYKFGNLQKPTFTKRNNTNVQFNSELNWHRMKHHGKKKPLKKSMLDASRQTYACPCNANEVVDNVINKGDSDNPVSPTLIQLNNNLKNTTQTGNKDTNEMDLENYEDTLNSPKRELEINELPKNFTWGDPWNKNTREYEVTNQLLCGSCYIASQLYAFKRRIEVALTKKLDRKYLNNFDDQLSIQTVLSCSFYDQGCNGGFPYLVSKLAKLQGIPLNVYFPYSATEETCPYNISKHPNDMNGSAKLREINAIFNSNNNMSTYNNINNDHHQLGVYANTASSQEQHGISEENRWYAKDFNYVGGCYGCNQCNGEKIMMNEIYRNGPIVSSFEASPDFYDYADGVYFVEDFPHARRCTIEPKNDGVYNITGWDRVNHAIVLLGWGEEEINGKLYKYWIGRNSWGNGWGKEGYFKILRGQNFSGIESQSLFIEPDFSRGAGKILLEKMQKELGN
Take `COc1ccc(C(O)c2nccn2C)cc1` (stereo not shown): the “% Inhibition @ 10 uM” value is reported as -3.38%. Regarding `CCCCCn1nc(C)c2c(C)cc(O)nc21`, the “% Inhibition @ 10 uM” value is recorded as 0.968%. As to `O=C1CCCN1CCCNc1ncnc2c1c(-c1ccccc1)cn2-c1cccc(C(F)(F)F)c1`, the “% Inhibition @ 10 uM” value was found to be 7.92%. The figure for `COc1ccc(CC(O)c2ccc(OC)c(OC)c2)cc1` (stereo not shown) is 4.77%; for `CC1CCCCN1c1nn2nnnc2c2ccccc12` (stereo not shown) it is -2.81%; for `c1ccc2c(c1)CCC(NCC1CCCO1)C2` (stereo not shown) it is -0.0908%.

Regarding `O=c1[nH][nH]c(=O)c2cc([N+](=O)[O-])ccc12`, the “% Inhibition @ 10 uM” value is on record as -0.239%.

As to `Nc1nonc1-c1nc2ccccc2n1Cc1ccc(Cl)cc1`, the “% Inhibition @ 10 uM” value is recorded as 36.6%. The figure for `Cc1ccccc1-c1noc(C2CCCCC2)n1` is -3.08%; for `Cn1c(-c2ccccc2)cnc1NCc1c(F)cccc1Cl` it is 0.627%. With `Cc1nn(-c2ccccc2)c(-n2cccc2)c1C(=O)NC(C)c1ccc2c(c1)OCCO2` (stereo not shown) the figure was 0.137%; with `Cc1ccc(NC(=O)CN2c3cccc4cccc(c34)S2(=O)=O)cc1Cl`, -0.891%.

As for `Cc1ccc(-c2n[nH]c3c2C(c2ccc(C(C)C)cc2)NC3=O)cc1` (stereo not shown), the “% Inhibition @ 10 uM” value is -1.76%. `Cc1ccc(C2=N/C(=C\c3ccc(C)o3)C(=O)O2)cc1`: the “% Inhibition @ 10 uM” value was -0.617%.

For `COc1cc2sc(C(=O)Nc3cccc(OC)c3OC)c(Cl)c2cc1OC`, the “% Inhibition @ 10 uM” value came out at 5.54%. The figure for `CC(=O)c1ccc(N2CCN(C3CCC(C)C3)CC2)cc1` (stereo not shown) is 0.0792%; for `C/C(=C\c1ccccc1)CN1CCN(C)CC1` it is 2.91%; for `Cc1ccc(NC(=O)COc2cc(Cl)ccc2Cl)cc1` it is 0.873%. With `OCCN1CCN(Cc2cccc(Cl)c2Cl)CC1` the figure was 2.22%.

As for `Cc1c(/C=C/C(=O)c2ccccc2O)cnn1C`, the “% Inhibition @ 10 uM” value is given as -0.603%.

In the case of `CCCOc1ccccc1C1C2=C(O)CC(C)(C)CC2=NC(C)=C1C(=O)OC(C)C` (stereo not shown), the “% Inhibition @ 10 uM” value is reported as -6.74%. With `COc1cc(C(=O)Nc2ccccc2C)cc(OC)c1OC` the figure was -1.52%; with `Cc1cccc(C)c1NC(=O)Cc1cccs1`, 4.12%. The figure for `COc1ccc(NC(=O)c2ccccc2Cl)c(OC)c1` is -7.02%; for `Cn1c(=O)c2sccc2n2c(CCCC(=O)N3CCN(Cc4ccc5c(c4)OCO5)CC3)nnc12` it is -2.44%. The figure for `CCCN1C(=O)c2cc(C(=O)NCCc3cccc(C)c3)ccc2C1O` (stereo not shown) is 1.38%; for `CN(C1CCCC1)C1CCN(C(=O)CNC(=O)/C=C/c2ccccc2)CC1` it is -6.64%. As to `O=S(=O)(c1ccc(F)cc1)N1CCc2ccccc21`, the “% Inhibition @ 10 uM” value is -0.351%.

With `C[C@H](CC(NC(=O)c1ccc(-c2ccc(C(C)(C)C)cc2)cc1)C(=O)NCC#N)c1ccccc1` (stereo partly shown), the “% Inhibition @ 10 uM” value is -3.48%. Turning to `Cc1ccc(-c2csc(Nc3ccc(F)cc3)n2)cc1`, the “% Inhibition @ 10 uM” value was found to be 1.41%. As for `CCN(Cc1ccccc1)C(=O)c1cc(-c2ccc(Cl)cc2)[nH]n1`, the “% Inhibition @ 10 uM” value is reported as 3.8%. For the compound `O=C(Nc1cccc(Cl)c1)Nc1ccccc1C(F)(F)F`, the “% Inhibition @ 10 uM” value is reported as -4.01%. Take `Cc1ccc(C)n1CCN1CCNCC1`: the “% Inhibition @ 10 uM” value came to 1.25%.

On to `CCc1c(C)nc2c(-c3ccccc3OC)c(C)nn2c1O`, for which the “% Inhibition @ 10 uM” value was determined as 1.62%. The figure for `Cc1nc2c(C)cccc2c2c1CC(C)O2` (stereo not shown) is -4.35%; for `O=C1c2ccccc2C(=O)N1CCCn1nnc2sc3c(c2c1=O)CCCC3` it is -4.54%; for `CCN1CCC(NCCN2CCCCC2)CC1` it is 1.57%. With `COc1ccc2c(Cl)c(C(=O)N3CCCCC3)sc2c1Cl` the figure was 3.42%; with `Cc1cc(C)n(-c2nnc(C)n2/N=C/c2cc(Br)ccc2OCc2ccccc2)n1`, -4.85%; with `O=C(O)c1ccccc1C(=O)Nc1cccc(O)c1`, -2.62%.

For the compound `Clc1cccc(-n2nnnc2C2(N3CCOCC3)CCCCC2)c1`, the “% Inhibition @ 10 uM” value is listed as 4.42%. On to `CCn1cc(CCCC(=O)NC2CCN(Cc3ccccc3)CC2)c2ccccc21`, for which the “% Inhibition @ 10 uM” value came out at 10%. With `CCCCN(CCNC(=O)c1c2c(nc3ccccc13)C(=O)N(C1CCCCC1)C2)Cc1ccco1` the figure was 10.9%; with `COC(=O)c1ccc(-n2nnc(-c3nsc(NC(=O)c4ccccc4)n3)c2C)cc1`, 4.23%; with `CCc1ccc(OCCSc2nc(-c3cccs3)nc3cc(=O)[nH]n23)cc1`, 0.234%. Consider `Cc1onc(-c2ccccc2Cl)c1C(=O)Nc1ccc(Cl)c(Cl)c1`, for which the “% Inhibition @ 10 uM” value is on record as -2.91%. The figure for `Cc1ccc2nc(Cl)c3cc(C(=O)N4CCN(c5ccccn5)CC4)sc3c2c1` is 3.2%; for `COc1cccc(CNCCO)c1OCc1ccccc1` it is -0.519%; for `COc1ccc(C2C3=C(Nc4ncnn42)c2ccccc2OC3c2cccs2)cc1` (stereo not shown) it is -5.19%.

Turning to `COc1ccc(-c2cc(C(=O)Nc3cc(C)n(Cc4ccc(Cl)cc4)n3)no2)cc1`, the “% Inhibition @ 10 uM” value is reported as 0.723%.

Turning to `CCOC(=O)N1CCC(NC2CCCc3ccccc32)CC1` (stereo not shown), the “% Inhibition @ 10 uM” value is -1.82%. The figure for `O=C(C1C2CCCCC21)N(CCN(Cc1ccccc1)C(=O)C1C2CCCCC21)Cc1ccccc1` (stereo not shown) is 1.5%.
